Where a name gives a salt, the structure may show the parent alone. ± gives the standard deviation of the averaged measurements. This is one part of the list.
Test system: OVCAR8
Test: cell count relative to DMSO vehicle (fold change); OVCAR8 is a high-grade serous ovarian cancer line and CX-5461 an RNA polymerase I inhibitor; higher = more surviving senescent cells (less killing)
Conditions: senescence inducer: CX-5461 3 µM 48 h, then 6 d recovery (CX senescent), exposure time 24 h

SMILES	cell count (compound dose 1 µM)	cell count (compound dose 5 µM)
O=c1ccc2ccc(O)cc2o1	1.05 ± 0.025	1.11 ± 0.029
COc1ccc([C@@H]2CC(=O)c3c(O)cc(O[C@@H]4O[C@H](CO[C@@H]5O[C@@H](C)[C@H](O)[C@@H](O)[C@H]5O)[C@@H](O)[C@H](O)[C@H]4O)cc3O2)cc1O [Hesperidin]	1.05 ± 0.2	1.03 ± 0.15
CC(C)(C)S(=O)(=O)c1cc2c(Nc3ccc4scnc4c3)ncnc2cc1OCCO	1.1 ± 0.25	1.06 ± 0.094
Cc1cc(OCCCc2c3n(c4c(-c5c(C)nn(C)c5C)c(Cl)ccc24)[C@H](C)CN(c2cn(C)c4ccc(C(=O)O)cc24)C3=O)cc(C)c1Cl	1.01 ± 0.13	1.24 ± 0.18
CC(C(=O)O)c1ccc2c(c1)Cc1cccnc1O2 (stereo not given)	0.895 ± 0.089	0.993 ± 0.12
Clc1ccc(NN=C(c2ccccc2)c2ccccn2)nc1	1.15 ± 0.12	1.35 ± 0.052
CN[C@H](C(=O)N[C@H](C(=O)N(C)[C@H](/C=C(\C)C(=O)O)C(C)C)C(C)(C)C)C(C)(C)c1ccccc1 [Taltobulin]	0.904 ± 0.073	0.778 ± 0.011
COc1cc(O)c2c(c1)oc(=O)c1c3cc(O)c(O)cc3oc21 [Wedelolactone]	0.984 ± 0.11	1.04 ± 0.075
COC(=O)C[C@H](NC(=O)[C@H](C)NC(=O)[C@@H](NC(=O)OCc1ccccc1)C(C)C)C(=O)CF	1.01 ± 0.17	1.04 ± 0.12
COc1ccc(-c2cc(=O)c3c(O)cc(O)c(-c4cc(-c5cc(=O)c6c(O)cc(O)cc6o5)ccc4OC)c3o2)cc1	1.125 ± 0.0078	1.06 ± 0.042
Cc1c(C)c2c(c(C)c1O)CCC(C)(COc1ccc(CC3SC(=O)NC3=O)cc1)O2 (stereo not given) [Troglitazone]	1.06 ± 0.1	1.11 ± 0.17
CCCCCCC[N+](CC)(CC)CCCCc1ccc(Cl)cc1 [Clofilium tosylate]	1.21 ± 0.16	1.18 ± 0.24
C=C1C(=O)O[C@@H]2/C=C(\C)CC/C=C(\C)CC[C@@H]12 [Costunolide]	1.07 ± 0.25	0.948 ± 0.14
Oc1ccc2c(c1)OCO2 [Sesamol]	0.999 ± 0.076	1.06 ± 0.076
Nc1c[nH]c(=O)c2cc(-c3ccccc3)sc12 [Thienopyridone]	1.16 ± 0.28	1.06 ± 0.14
COc1cc(C2CC(c3ccccc3)=NN2C(N)=S)cc(OC)c1OC (stereo not given)	1.16 ± 0.16	0.964 ± 0.084
CCOC(=O)c1cnc(C#Cc2ccc3c(c2)C(C)(C)CC[S+]3[O-])nc1 (stereo not given)	1.09 ± 0.14	0.9945 ± 0.005
O=C(C=Cc1ccccc1)NC(NC(=S)Nc1ccc(Cl)cc1)C(Cl)(Cl)Cl (stereo not given)	1.03 ± 0.22	1.16 ± 0.18
Nc1nc(Cl)nc2c1ncn2[C@H]1C[C@H](O)[C@@H](CO)O1 [Cladribine]	1.04 ± 0.28	1.01 ± 0.25
COc1cccc2c1C(=O)c1c(O)c3c(c(O)c1C2=O)C[C@@](O)(C(=O)CO)C[C@@H]3O[C@H]1C[C@H](N)[C@H](O)[C@H](C)O1 [Doxorubicin (hydrochloride)]	1.1 ± 0.29	0.642 ± 0.1

— the supplement of paper PMC12462457
